Two compounds from PubChem BioAssay (NCI) can be followed below.

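These data come from cells grown in 96-well plates and exposed to compound for 48 hours at five concentrations. Abbreviation: GI50, concentration required for 50% inhibition of growth. At the TGI there is no net growth.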

The experiment has as its system NCI-H322M lung. Briefly: DTP human tumour cell line panel, 48 h.

Usually GI50 stands for the concentration that inhibits growth by half. As a reminder, the TGI is the concentration giving total growth inhibition. Consider `Cn1cc(-c2cc(N)n3nc(-c4cn(C)c5ncccc45)cc3n2)c2cccnc21`, for which the GI50 is 14.4 µM and the TGI was determined as 27.5 µM.

For `Cc1cc2c(cc1Cl)C(=O)/C(=C/c1ccccc1)O2`, the GI50 is 60.6 µM and the TGI was over 100 µM.
